Results: the supplement of paper PMC8728848
The other results are listed elsewhere or left out.

Legend:
Assay in all cases: glycan array binding signal (z-score within array); higher = stronger binding
Conditions in all cases: glycan notation: IUPAC condensed, linker removed; mutation: E227G
[1] = target: Gal(b1-4)GalNAc(b1-3)[Fuc(a1-2)]Gal(b1-4)GlcNAc
In short: (§1)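 Glycan array data were curated from 3228 arrays in the Consortium for Functional Glycomics database and kept only where the protein sequence was available. Glycan names were converted to IUPAC-condensed notation, and columns mapping to the same glycan were averaged. The binding signal is a within-array Z-score, averaged across arrays of the same protein sequence at different concentrations or buffers and across linkers. Negative Z-scores can be read as non-binding.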

Gal(b1-4)Glc = target: Gal(b1-4)Glc
In short: as §1

Gal(b1-4)Glc6S = target: Gal(b1-4)Glc6S
In short: as §1

Gal(b1-4)GlcNAc = target: Gal(b1-4)GlcNAc
In short: as §1

[2] = target: Gal(b1-4)GlcNAc(a1-6)Gal(b1-4)GlcNAc
In short: as §1

Gal(b1-4)GlcNAc(b1-2)Man = target: Gal(b1-4)GlcNAc(b1-2)Man
In short: as §1

[3] = target: Gal(b1-4)GlcNAc(b1-2)Man(a1-3)Man(b1-4)GlcNAc(b1-4)GlcNAc
In short: as §1

[4] = target: Gal(b1-4)GlcNAc(b1-2)Man(a1-3)[Gal(b1-4)GlcNAc(b1-2)Man(a1-6)]Man(b1-4)GlcNAc(b1-4)GlcNAc
In short: as §1

[5] = target: Gal(b1-4)GlcNAc(b1-2)Man(a1-3)[Gal(b1-4)GlcNAc(b1-2)Man(a1-6)]Man(b1-4)GlcNAc(b1-4)[Fuc(a1-6)]GlcNAc
In short: as §1

[6] = target: Gal(b1-4)GlcNAc(b1-2)Man(a1-3)[Gal(b1-4)GlcNAc(b1-2)Man(a1-6)][Gal(b1-4)GlcNAc(b1-4)]Man(b1-4)GlcNAc(b1-4)[Fuc(a1-6)]GlcNAc
In short: as §1

[7] = target: Gal(b1-4)GlcNAc(b1-2)Man(a1-3)[Gal(b1-4)GlcNAc(b1-2)Man(a1-6)][GlcNAc(b1-4)]Man(b1-4)GlcNAc(b1-4)[Fuc(a1-6)]GlcNAc
In short: as §1

[8] = target: Gal(b1-4)GlcNAc(b1-2)Man(a1-3)[GlcNAc(b1-2)Man(a1-6)]Man(b1-4)GlcNAc(b1-4)GlcNAc
In short: as §1

[9] = target: Gal(b1-4)GlcNAc(b1-2)Man(a1-3)[GlcNAc(b1-4)][Gal(b1-4)GlcNAc(b1-2)Man(a1-6)]Man(b1-4)GlcNAc(b1-4)GlcNAc
In short: as §1

[10] = target: Gal(b1-4)GlcNAc(b1-2)Man(a1-3)[Man(a1-6)]Man(b1-4)GlcNAc(b1-4)GlcNAc
In short: as §1

[11] = target: Gal(b1-4)GlcNAc(b1-2)Man(a1-6)Man(b1-4)GlcNAc(b1-4)GlcNAc
In short: as §1

[12] = target: Gal(b1-4)GlcNAc(b1-2)Man(a1-6)[GlcNAc(b1-2)Man(a1-3)]Man(b1-4)GlcNAc(b1-4)GlcNAc
In short: as §1

[13] = target: Gal(b1-4)GlcNAc(b1-2)Man(a1-6)[Man(a1-3)]Man(b1-4)GlcNAc(b1-4)GlcNAc
In short: as §1

[14] = target: Gal(b1-4)GlcNAc(b1-2)[Gal(b1-4)GlcNAc(b1-4)]Man(a1-3)[Gal(b1-4)GlcNAc(b1-2)Man(a1-6)]Man(b1-4)GlcNAc(b1-4)GlcNAc
In short: as §1

[15] = target: Gal(b1-4)GlcNAc(b1-2)[Gal(b1-4)GlcNAc(b1-4)]Man(a1-3)[Gal(b1-4)GlcNAc(b1-2)[Gal(b1-4)GlcNAc(b1-6)]Man(a1-6)]Man(b1-4)GlcNAc(b1-4)GlcNAc
In short: as §1

[16] = target: Gal(b1-4)GlcNAc(b1-2)[Gal(b1-4)GlcNAc(b1-4)]Man(a1-3)[GlcNAc(b1-4)][Gal(b1-4)GlcNAc(b1-2)Man(a1-6)]Man(b1-4)GlcNAc(b1-4)GlcNAc
In short: as §1

[17] = target: Gal(b1-4)GlcNAc(b1-2)[Gal(b1-4)GlcNAc(b1-4)]Man(a1-3)[GlcNAc(b1-4)][Gal(b1-4)GlcNAc(b1-2)[Gal(b1-4)GlcNAc(b1-6)]Man(a1-6)]Man(b1-4)GlcNAc(b1-4)GlcNAc
In short: as §1

[18] = target: Gal(b1-4)GlcNAc(b1-2)[Gal(b1-4)GlcNAc(b1-6)]Man(a1-6)[Gal(b1-4)GlcNAc(b1-2)Man(a1-3)]Man(b1-4)GlcNAc(b1-4)GlcNAc
In short: as §1

[19] = target: Gal(b1-4)GlcNAc(b1-2)[Gal(b1-4)GlcNAc(b1-6)]Man(a1-6)[Gal(b1-4)GlcNAc(b1-2)Man(a1-3)]Man(b1-4)GlcNAc(b1-4)[Fuc(a1-6)]GlcNAc
In short: as §1

[20] = target: Gal(b1-4)GlcNAc(b1-2)[Gal(b1-4)GlcNAc(b1-6)]Man(a1-6)[GlcNAc(b1-4)][Gal(b1-4)GlcNAc(b1-2)Man(a1-3)]Man(b1-4)GlcNAc(b1-4)GlcNAc
In short: as §1

[21] = target: Gal(b1-4)GlcNAc(b1-2)[Gal(b1-4)GlcNAc(b1-6)]Man(a1-6)[GlcNAc(b1-4)][Gal(b1-4)GlcNAc(b1-2)[Gal(b1-4)GlcNAc(b1-4)]Man(a1-3)]Man(b1-4)GlcNAc(b1-4)[Fuc(a1-6)]GlcNAc
In short: as §1

[22] = target: Gal(b1-4)GlcNAc(b1-3)Gal(b1-3)GalNAc
In short: as §1

[23] = target: Gal(b1-4)GlcNAc(b1-3)Gal(b1-3)GlcNAc
In short: as §1

[24] = target: Gal(b1-4)GlcNAc(b1-3)Gal(b1-4)Glc
In short: as §1

[25] = target: Gal(b1-4)GlcNAc(b1-3)Gal(b1-4)GlcNAc
In short: as §1

[26] = target: Gal(b1-4)GlcNAc(b1-3)Gal(b1-4)GlcNAc(b1-2)Man(a1-3)[Gal(b1-4)GlcNAc(b1-3)Gal(b1-4)GlcNAc(b1-2)Man(a1-6)]Man(b1-4)GlcNAc(b1-4)GlcNAc
In short: as §1

B1: Epa1-NP-mutant-E227G (Candida glabrata), Q6VBJ0 (protein)
chain: MILNPALFLNKCVCIYTTLILLLLTNGGYATSSNDISLASKDPTTFPLGCSPDITTPKKGLSMELYSYDFRKKGSYPCWDAAYLDPNYPRTGYKSHRLLAKVDGVTGNINFYYHATKGCTPQLGHLPASYNYPKPLTMTNFTMLLYGYFRPKVTGFHTFTISADDLLFVNFGAGNAFDCCRRDSSADHFGNYQAYAIWGSKTAKDELTVHLDAGVYYPIRLFYNNRGYDGALSFTFKTESNENTVSDFSEYFFSLDDTEEGCPGLISYDSSCASVKTSKIIGIDYHTETPNENLVPITKTIYHLGIPCTGTTTTPLCGSGFYDPLANKCVTINTSSTSSVTKTTSHTTSKEVSFHSSISSQKTLIPKSIPSPYGPIKSQSIPTEMETSSEISSSEYAFSDVISTPSHSPYTKKHSSLNSSSYTSTVIHSLTSYSISQGIFSTSLSEQNITSKSSTDKFSTATSMSNNITQSSIIISQFSTNNENYTTTSMHTSSDKISTETLNNSISTTTSILFSNSSTILKNNTTIISSDKDTHYHPVNPTIVCSTNKTEIICASITQPSISNSNNHWSSSVLKFNSTTVRSTLPSSAGSNETSINVPFSSSTESNTSTSSTSTSNSKMVRSTLPSSAGSNETSISVPFSSSTESNTSTSSTSTSNSKMVRSTLPSSAGSNETSINVPFSSSTESNTSTSSTSTSNSKTVRSTPFSSAGIIMTSLSQRNNKSASSYASSNSKCYNTADSCRKVHSTPSYLLTSSYTSEGVDYDCSLVSTKLKINDTNCVNNKHTTKSCLKTSVTTTIPTLEIKTARKSSSNTIGLHSYPTSSPNKSISSAPIIGYISSFKTIKTASPSYQTSDLTTITTITSLNNPGSTAVENTHESNDKSRKTSSNDISSKHSVIKETKDAVESSNKSHQTNTLKCSSIIIASSSHNSYESLGGTTLTLTLSKVYSPQNNDTLPFLEISEVNPSRTVLPESSKMMQYLTSTEERNKTARNTIATNIVSISTFHFEGEGNAIRMGYTQLLLMLIGIIVMNIGT
- glycan array binding signal (z-score) [1]: -0.206
- glycan array binding signal (z-score) (Gal(b1-4)Glc): -0.143
- glycan array binding signal (z-score) (Gal(b1-4)Glc6S): 7.04
- glycan array binding signal (z-score) (Gal(b1-4)GlcNAc): -0.124
- glycan array binding signal (z-score) [2]: 0.595
- glycan array binding signal (z-score) (Gal(b1-4)GlcNAc(b1-2)Man): -0.147
- glycan array binding signal (z-score) [3]: -0.178
- glycan array binding signal (z-score) [4]: -0.165
- glycan array binding signal (z-score) [5]: -0.15
- glycan array binding signal (z-score) [6]: -0.179
- glycan array binding signal (z-score) [7]: -0.203
- glycan array binding signal (z-score) [8]: -0.162
- glycan array binding signal (z-score) [9]: -0.072
- glycan array binding signal (z-score) [10]: -0.143
- glycan array binding signal (z-score) [11]: -0.117
- glycan array binding signal (z-score) [12]: -0.196
- glycan array binding signal (z-score) [13]: -0.161
- glycan array binding signal (z-score) [14]: -0.072
- glycan array binding signal (z-score) [15]: -0.277
- glycan array binding signal (z-score) [16]: -0.135
- glycan array binding signal (z-score) [17]: -0.062
- glycan array binding signal (z-score) [18]: -0.053
- glycan array binding signal (z-score) [19]: -0.118
- glycan array binding signal (z-score) [20]: -0.215
- glycan array binding signal (z-score) [21]: -0.2
- glycan array binding signal (z-score) [22]: -0.039
- glycan array binding signal (z-score) [23]: -0.301
- glycan array binding signal (z-score) [24]: -0.212
- glycan array binding signal (z-score) [25]: -0.047
- glycan array binding signal (z-score) [26]: 0.084
